± gives the standard deviation of the averaged measurements. The list shows a part of the results.

This note sets out measurements from the supplement of paper PMC11417369.

The subject of this test is PfAP2-LT AP2 domain (GST-tagged). Nature of the test: gcPBM binding intensity (ln(normalized median fluorescence intensity)); higher = stronger DNA binding. Summed up: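 GST-fused DNA-binding domains of P. falciparum, expressed in E. coli, were applied at about 25 μg on average for 1 h to an Agilent 4 × 180k array of primer-extended double-stranded 36-bp intergenic genomic probes and negative controls. Binding intensity is the highest Masliner-normalised natural-log median intensity across replicate spots of either probe orientation, measured with Alexa488 anti-GST antibody and a 488 nm scan.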
“TTAACAAATAAATGCACACATATATATAAATAATAT [CACACA_site28]”: the “gcPBM binding intensity (ln)” value came out at 9.01 ± 0.38.

Regarding “TTATGCTCAAAGAAAAGTACATAAATAAAAGTATAT [XGTACX_site7365]”, the “gcPBM binding intensity (ln)” value is 8.73 ± 0.45.

With “TTCTTCAATATATTCTTACACACTTAAAAAAAAAAA [CACACA_site228]”, the “gcPBM binding intensity (ln)” value stood at 8.27 ± 0.35.

For “TAAACACCCATACATACACACATACATACACCCATA [CACACA_site5125]”, the “gcPBM binding intensity (ln)” value was 9.63 ± 0.18.

On to “ATATATATATATATATGTACATAATGCATATAATAT [XGTACX_site6142]”, for which the “gcPBM binding intensity (ln)” value worked out at 9.39 ± 0.028.

“TTAATACTTTTTTCTGTACACACTTGATTTACTATA [CACACA_site2799]”: the “gcPBM binding intensity (ln)” value worked out at 9.03 ± 0.42.

For the sequence “GAAGGAAAAGATACGATAAAATAAGATATTAATTTA [GTGCAC_negctrl_site419]”, the “gcPBM binding intensity (ln)” value amounted to 8.61 ± 0.62.

Turning to “TTTTTTTTTTTTTATTGTACATACTTTTAAATATAT [XGTACX_site4303]”, the “gcPBM binding intensity (ln)” value is 8.71 ± 0.42.

On to GTATATAAATAAATAGTGCATTATTAAAAATAATGT, for which the “gcPBM binding intensity (ln)” value is 8.85 ± 0.47.

Take “GTATACAACATATGAACACACAAAATATTTTTTTTT [CACACA_site2928]”: the “gcPBM binding intensity (ln)” value was 8.98 ± 0.45.

Consider “TATCTCCACAAAAGATGTACTCATATTAATTTATAA [XGTACX_site3535]”, for which the “gcPBM binding intensity (ln)” value was determined as 8.27 ± 0.39.

Consider “TTAAAGCTTGCATATACACACATACATAAATTCATA [CACACA_site7208]”, for which the “gcPBM binding intensity (ln)” value came to 8.9 ± 0.4.

As to “TAAAAGTTGAAGCACACACACAAAAGAAATACAATA [CACACA_site6649]”, the “gcPBM binding intensity (ln)” value amounted to 9.77 ± 0.49.

As to “ATATATTTATATTTTTGTACCCAAAATTGTTTGATG [XGTACX_site3581]”, the “gcPBM binding intensity (ln)” value stood at 8.73 ± 0.52.

On to “ATTGAGGCTGGTTATATAATAATTTTATTATTTTAG [GTGCAC_negctrl_site409]”, for which the “gcPBM binding intensity (ln)” value was found to be 8.74 ± 0.36.

Take “TTTGTTATATTTAATACACACATATTATAAACACAT [CACACA_site7703]”: the “gcPBM binding intensity (ln)” value was 8.98 ± 0.38.

“TATGAAAAGTAAAGTACACACAGGAAAAAAAAAAAA [CACACA_site1749]”: the “gcPBM binding intensity (ln)” value came out at 9.19 ± 0.52.

As for “TATATAATATATTTATGTACTCACAATGGGGTCTAC [XGTACX_site2691]”, the “gcPBM binding intensity (ln)” value was 8.86 ± 0.49.

Take “AAAATATATAAACGCACATATATTTATGTATATATA [CACACA_negctrl_site163]”: the “gcPBM binding intensity (ln)” value is 8.89 ± 0.42.

As for “TAAAAAAAAACATGATGTACATAAAATTTTTTACTT [XGTACX_site7056]”, the “gcPBM binding intensity (ln)” value was 8.59 ± 0.47.

Consider “TACATATATTTAAGGAGTACAAAAAATAATGATAAA [XGTACX_site3539]”, for which the “gcPBM binding intensity (ln)” value is 8.74 ± 0.45.

Turning to “TTATTAGAGATGTTAAGATATAGGGATAATTTCGAT [XGTACX_negctrl_site395]”, the “gcPBM binding intensity (ln)” value was found to be 8.4 ± 0.48.

For the sequence “AAAAGGGAAAAAATTAAAATTATATATATATATATG [CACACA_negctrl_site137]”, the “gcPBM binding intensity (ln)” value was determined as 8.52 ± 0.39.

Turning to “ATATGTTTTAAGTGTACACATATAATGTATTTTGTT [CACACA_site4929]”, the “gcPBM binding intensity (ln)” value amounted to 9.06 ± 0.4.

In the case of “TTGCTCATTGAAATTATACACACCAAATATATAAAT [CACACA_site2482]”, the “gcPBM binding intensity (ln)” value was found to be 8.74 ± 0.29.

As to “AACCTATCTATAGGAACAATATATATATATATAATT [CACACA_negctrl_site1707]”, the “gcPBM binding intensity (ln)” value is 8.98 ± 0.33.

In the case of “TATTATGCTATTTAATGTACGGAATTTATATATATA [XGTACX_site564]”, the “gcPBM binding intensity (ln)” value is 8.62 ± 0.42.

Turning to “TTGCTTTTCATTTATTGTACATACCCAGTAGGATAA [XGTACX_site3939]”, the “gcPBM binding intensity (ln)” value is 8.62 ± 0.45.

On to “GACATAGTATTAAGTTGTACATATATAAAAATAAAT [XGTACX_site1583]”, for which the “gcPBM binding intensity (ln)” value worked out at 8.86 ± 0.48.

As for “ATGTTTTCAAAAATAAAACATATAAATAAATAAATA [TGCATGCA_negctrl_site226]”, the “gcPBM binding intensity (ln)” value was 8.49 ± 0.55.

For the sequence “AATGTACACGCACCCACACACAAACAAATATAAATA [CACACA_site7319]”, the “gcPBM binding intensity (ln)” value is 9.79 ± 0.36.

Consider “TTACGAATGAATATATGTACATATATATATATATAT [XGTACX_site3790]”, for which the “gcPBM binding intensity (ln)” value came to 9.875 ± 0.092.

As to “CAACAACAAATGAGAAGTACATAAATATTAACAATA [XGTACX_site4625]”, the “gcPBM binding intensity (ln)” value amounted to 8.9 ± 0.48.

For the sequence “TTATAATACCTACAAAGTACAAACTTAAATATGAAC [XGTACX_site5684]”, the “gcPBM binding intensity (ln)” value was 8.7 ± 0.42.

Consider “AAGCTTAAAAATGGGGGTACGTCATAGGGATTCAAC [XGTACX_site8080]”, for which the “gcPBM binding intensity (ln)” value was 9.01 ± 0.24.

Regarding “AATATATAAACATATACACACAAAAACATATATATA [CACACA_site4855]”, the “gcPBM binding intensity (ln)” value was determined as 9.21 ± 0.33.

As to “TTTGACACAATATTTTGTACGAAACTATTAATTCAA [XGTACX_site4853]”, the “gcPBM binding intensity (ln)” value was determined as 8.52 ± 0.52.

As for “GCATACATCAAGCACACACACACACGCACACGCACA [CACACA_site6311]”, the “gcPBM binding intensity (ln)” value was 10.2 ± 0.19.

“ACTACGAATGGTAGAGTGCAGTCTGGAGAAGAGTAC [GTGCAC_site9685]”: the “gcPBM binding intensity (ln)” value worked out at 9.19 ± 0.45.

Take “AAAAAAAAGAATTAGGCACACAATTTTAATATAGGA [CACACA_site1522]”: the “gcPBM binding intensity (ln)” value worked out at 8.72 ± 0.58.

As for “GTGAAGTTCAAAATATGTACTTATGTATGTATTTTT [XGTACX_site165]”, the “gcPBM binding intensity (ln)” value came to 8.73 ± 0.42.

Turning to “TTATGTTTCATAAAAAATTAATCAAACATATATAAG [CACACA_negctrl_site666]”, the “gcPBM binding intensity (ln)” value was 8.22 ± 0.46.

In the case of “TATACATAGAAACACACACACATAAATAAATATATA [CACACA_site1342]”, the “gcPBM binding intensity (ln)” value turned out to be 9.74 ± 0.26.

Turning to “TGGTATATAAAACACACACACATATGTATATATATA [CACACA_site926]”, the “gcPBM binding intensity (ln)” value is 9.63 ± 0.29.
